Where “and” joins values, the source holds several entries; their conditions need not be identical. Equal entries are not always repeated. About 540 (0.13%) of roughly 420,000 compounds were called active. The inconclusive results got no clear call from the source; some entries with a clear call stand among them for comparison. Cut-off read from the data, not from the text of the source: active = activity change below about -50%; inconclusive = mostly about -30% to -49%; inactive = weaker than that.
These molecules were tested against Phosphatidylinositol 4-kinase type 2-alpha (Homo sapiens) (UniProt Q9BTU6) (assay: qHTS for small molecular inhibitors of PI4K2A). Details: purified PI4K2A, ADP-Glo luminescence, 1 h; at 76.9 µM, active compounds read low.
Excerpt: The phosphatidylinositol 4-phosphate (PI4P) is emerging as a key regulator of lipid transfer in ER-membrane contact sites. The four different phosphatidylinositol 4-kinase (PI4K) enzymes generate PI4P in different membrane compartments supporting distinct cellular processes many of which are crucial for the maintenance of cellular integrity but also hijacked by intracellular pathogens. The goal of this screening project is to search for small molecular inhibitors of PI4K2A based on a high throughput screening strategy.The ADP-Glo assay was used as a starting point to develop a miniaturized version for HTS applications. To implement the HTS screen, the PI4K ADP-Glotrade mark Kinase assay (Promega, V9102) was miniaturized for the 1536-well format used at NCGC.
For the robotic screening, the ADP-Glo assay using the ADP-Glotrade mark Kinase Assay kit from Promega was miniaturized and optimized on 1536-well white solid bottom plates (Greiner Bio-one). The substrate, 1.2 mM PI, prepared in the assay buffer (40mM Tris pH7.5, 20mM MgCl2, 1mM EGTA, 0.4% Triton X-100, 0.5mM DTT, 0.5mg/ml BSA) and PI4K2A enzyme, diluted also in the assay buffer to 4ug/mL, were dispensed onto the plates in equal volumes (1microl/well), pinned with 23 nL/well tested compounds or control followed by dispensation of 1microl/well 300microM ATP. The plates were incubated for one hour. Then, 2 µL/well of ADP-Glo reagent was added and incubated for 40 minutes. Next, 4microL/well of Kinase Detection Buffer was added to the plates and incubated for additional 40 minutes. All incubation steps were performed at ambient temperature. The resulting luminescence signal was measured on Viewlux plate reader (PerkinElmer). Adenosine, a partial non-specific inhibitor, was used as a positive control at 100microM final concentration to assess the assay's quality and plate-to-plate reproducibility. We also used "no enzyme" control to gauge the assay's maximal potential inhibition (IC100).
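Note: -100% = wells without enzyme as full effect.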

Sequence of UniProt Q9BTU6 (Q9BTU6 whole entry, looked up): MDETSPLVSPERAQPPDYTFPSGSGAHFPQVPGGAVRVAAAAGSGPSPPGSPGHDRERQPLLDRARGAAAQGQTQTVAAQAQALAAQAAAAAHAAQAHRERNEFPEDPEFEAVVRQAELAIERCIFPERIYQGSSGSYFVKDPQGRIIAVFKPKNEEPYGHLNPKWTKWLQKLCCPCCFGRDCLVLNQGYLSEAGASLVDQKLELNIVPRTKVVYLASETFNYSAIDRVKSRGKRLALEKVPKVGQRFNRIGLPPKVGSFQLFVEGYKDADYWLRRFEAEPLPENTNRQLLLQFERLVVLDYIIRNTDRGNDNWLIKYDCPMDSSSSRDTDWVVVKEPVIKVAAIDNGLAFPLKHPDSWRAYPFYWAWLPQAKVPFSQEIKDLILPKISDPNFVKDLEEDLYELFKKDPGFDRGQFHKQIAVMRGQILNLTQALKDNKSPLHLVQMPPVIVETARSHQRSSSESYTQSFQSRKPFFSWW

Compound	activity change, negative = inhibition
CC(=O)Nc1ccc(NC(=O)c2nc(S(=O)(=O)Cc3ccc(F)cc3)ncc2Cl)cc1	inconclusive: -31.4%
CCN(CC)c1ccc2nc3ccccc3[n+](CC)c2c1	active: -55.4%
O=C(O)c1ccccc1-c1ccc(/C=c2\sc3nc4cc(Br)cnc4n3c2=O)o1	inconclusive: -41.6%
c1ccc(COc2ccc(OCCCn3cncn3)cc2)cc1	inconclusive: -33.7%
Oc1[nH]c2ccc(Br)cc2c1N=NC(=S)N1CCOCC1	inactive: 16.1%
N#Cc1ccccc1OCc1cn(CC(=O)c2ccc(O)cc2)nn1	inconclusive: -32.4%
CCOc1ccccc1NC(=O)C1CCN(S(=O)(=O)c2c(C)noc2/C=C/c2ccco2)CC1	inconclusive: -35.6%
COc1ccc(-c2cc(-c3nnc4sc(Cc5cccs5)nn34)[nH]n2)cc1	inconclusive: -37.5%
CC(=NNC(=S)N1CCC1)c1ccccn1	active: -60.2%
COCCn1c(C)cc(C2=NNC(=Nc3ccccc3)SC2)c1C	active: -51.6%
Cc1ncsc1C(=O)Nc1nc2c(s1)CCCC2	inactive: -27.1%
Cc1ccc(NC2=C(N3CCOCC3)C(=O)c3ccccc3C2=O)cc1	inconclusive: -35.1%
Cc1cccc(/C(N)=N/OC(=O)c2cccs2)c1	inconclusive: -31.2%
Nc1ncnc2c1ncn2C1OC(COP(=O)(O)O)C(O)C1O (configuration not stated)	inconclusive: -31.4%
Oc1ccc(NCc2cccs2)cc1	inconclusive: -49.9%
Cc1ccc(C)c(NC(=S)Nc2cccc3cnccc23)c1	active: -55.4%
Nc1ccc(N)c(C(=O)O)c1	active: -66%
O=[N+]([O-])c1ccc(Sc2cccc[n+]2[O-])c2nonc12	inconclusive: -44.6%
COC(=O)c1ccc(C(=O)Nc2ccc(F)cc2)cc1	inconclusive: -34%
COc1ccccc1/C=N/NC(=O)c1cccc2ccccc12	inactive: -3.42%
COc1cc(N=Nc2ccc3ccccc3c2)ccc1O	inactive: 1.28%
C=C1c2cccc(O)c2C(O)=C2C(=O)[C@]3(O)C(O)=C(C(N)=O)C(=O)[C@@H](N(C)C)[C@@H]3[C@@H](O)[C@H]12	inconclusive: -47.3% and inconclusive: -42.8%
CCCCCCCC(=O)N/N=C/c1ccc([N+](=O)[O-])o1	inactive: -0.62%

Compound	activity change, negative = inhibition
COc1ccc(CCC(=O)Nc2c(-c3ccc(N(C)C)cc3)[nH][nH]c2=O)cc1	active: -64.2%
Cc1ccccc1Nc1nc(N)c2ccccc2n1	inconclusive: -35.9%
C(=N\Nc1nc2ccccc2s1)/c1ccccn1	inconclusive: -38%
COc1ccc(S(=O)(=O)c2c(N)n(Cc3ccco3)c3nc4ccccc4nc23)cc1	inconclusive: -39%
CC1CCCN(S(=O)(=O)c2ccc3[nH]c4c(c3c2)CCCC4)C1 (configuration not stated)	inactive: 0.905%
CCOc1ccc(NC(=S)c2ccncc2)cc1	inactive: -2.58%
Cc1cc(=O)n(CCCO)c(O)c1C#N	inconclusive: -31.9%
O=C(c1ccc(-c2nc3ccccc3s2)s1)N1CCOCC1	active: -66.5%
COc1ccc(C(=O)Nc2ccc(NC(=O)c3cccs3)cc2)cc1OC	inconclusive: -48.7%
C/C(=N\NC(=O)c1cccc2ccccc12)c1ccccn1	inactive: -0.51%
O=C(O)c1ccc(NC2=C/C(=N/S(=O)(=O)c3cccs3)c3ccccc3C2=O)cc1	active: -52%
Nc1ccc(Br)c2cccnc12	inconclusive: -38%
CC1=NN(c2ccc(Cl)cc2)C(=O)C1	inconclusive: -34.3%
CS(=O)(=O)c1ccc(C(=O)Nc2nc(-c3ccco3)c(-c3ccco3)s2)cc1	inconclusive: -49.9%
Nc1ncnc2c1nc(-c1ccccc1)n2C1OC(CO)C(O)C1O (configuration not stated)	inconclusive: -49.1%
CCCCOc1ccc(C(=O)NCC(=O)NCC(=O)OCC)cc1	inactive: -0.586%
Nc1ncnc2c1ncn2-c1ccccc1Cl	inconclusive: -46.2%
CCOc1ccc(N2Cc3ncccc3C2=O)cc1	inconclusive: -30.5%
CC(C)C(=O)N1CCN(c2ccccc2NC(=O)c2ccc([N+](=O)[O-])o2)CC1	inactive: -0.223%
COc1ccc(CNC(=O)CCCC(=O)n2nc(C)c3ccccc32)cc1	inconclusive: -40.6%
Cc1cc(O)c(C=O)c2c1C(=O)Oc1c(CO)c(O)c3c(c1O2)C(O)OC3=O (configuration not stated)	active: -84.8%
O=C(O)Cc1ccc(N2N=C(c3ccccc3)CC2=O)cc1	inconclusive: -38.8%
CC1=NN(c2ccccc2)C(=O)C1C=Nc1ccc(N(C)C)cc1 (configuration not stated)	inconclusive: -34.7%

Compound	activity change, negative = inhibition
O=C1c2ccccc2-c2nnc(-c3ccccc3)cc21	inconclusive: -42.7%
O=c1c2c3nc4ccccc4nc3n(Cc3ccccc3)c2ncn1Cc1ccco1	inconclusive: -38.3%
CCCCCOC(=O)c1cc(=O)[nH]c2ccccc12	inactive: -0.377%
CC(C)n1cnc2c(NCc3ccccc3)cc(OCC3CCN(C)CC3)cc21	inconclusive: -39.9%
COc1ccc(C(=O)/C=C/c2cn(CC(O)CN3CCCCCC3)c3ccccc23)cc1OC (configuration not stated)	inactive: -2.42%
COc1ccccc1CNc1nc(NCc2cccs2)nc2ccsc12	inactive: 1.22%
C=C1C(=O)O[C@@H]2C[C@@H](C)[C@@H]3C=CC(=O)[C@@]3(C)[C@@H](OC(C)=O)[C@H]12	inconclusive: -35%
CCOC(=O)c1sc2ccccc2c1S(=O)(=O)Nc1cc(OC)ccc1OC	inactive: 0.616%
CC1=NN(c2ccccc2)C(=O)C1=Cc1ccccc1	active: -56.6%
Cc1ccc(NC2=C(NCCO)C(=O)c3ccccc3C2=O)cc1	inconclusive: -41.9%
O=C(N/N=C/c1ccc(-c2ccc(S(=O)(=O)Nc3ncccn3)cc2)o1)c1cc2ccccc2cc1O	inconclusive: -38.5%
COc1ccccc1C(CNC(=O)c1ccc(NS(=O)(=O)c2ccc(C(C)=O)cc2)cc1)N1CCCC1 (configuration not stated)	inconclusive: -34.5%
COc1ccc(-c2cc(=O)[nH][nH]2)cc1OC	inconclusive: -34.6%
CC(C)=CCC1=C(OCC(=O)O)C(=O)c2ccccc2C1=O	inconclusive: -41.1%
O=C(NCc1ccco1)C1CCN(S(=O)(=O)N2CCOCC2)CC1	active: -85%
COc1cc2cc3c(N)c(C(=O)Nc4sc(C)c(C)c4C#N)sc3nc2cc1OC	active: -50.3%
O=C(N/N=C/c1cccc(F)c1)c1cc(-c2ccco2)nc2ccccc12	inconclusive: -44.8%
CC1=NN(c2ccccc2)C(=O)/C1=C\c1ccc(Br)s1	inconclusive: -37.8%
CCCOc1ccc(N)cc1N	active: -58.3%
O=C1Cc2ccccc2C(=O)N1Cc1ccccc1	inconclusive: -34%
O=Nc1c(O)ccc2cc(S(=O)(=O)O)ccc12	inconclusive: -36.1%
CCOc1ccc(C(=O)Nc2cccc(C)n2)cc1	inconclusive: -31.9%
O=C(N/N=C/c1ccc(F)cc1)c1cc(-c2ccco2)nc2ccccc12	inconclusive: -37.4%

Compound	activity change, negative = inhibition
CC(C)(C)c1cc(=O)n(-c2ccccc2)[nH]1	active: -53.9%
O=C(O)c1cccc(Nc2nc3ccccc3nc2NS(=O)(=O)c2ccc(F)cc2)c1	inactive: -1.68%
Cc1ccccc1NC(=O)Cn1c(=O)n(Cc2ccccc2)c(=O)c2sc3ccccc3c21	inactive: -2.6%
O=C(COC(=O)c1cc(-c2ccc(Cl)s2)nc2ccccc12)NCc1ccco1	inconclusive: -35.4%
Cc1cc(C)c(S(=O)(=O)/N=C2/C=C(SCC(=O)O)C(=O)c3ccccc32)cc1C	active: -53%
CN1/C(=C\C=N\O)C(C)(C)c2ccccc21	inactive: 1.86%
CN(C)c1ccc(CNc2nc3ccccc3n2C)cc1	inconclusive: -41.3%
O=c1ccc(NS(=O)(=O)c2ccc(Cl)cc2)cn1Cc1ccc(Cl)c(Cl)c1	active: -59.2%
NC(=O)c1ccc(N=C2C(=O)Nc3ccc([N+](=O)[O-])cc32)cc1	inconclusive: -33.4%
O=C(Nc1cccc(S(=O)(=O)NC2=NCCCCC2)c1)c1cc(-c2ccco2)nc2ccccc12	inconclusive: -37.8%
O=C(COc1ccccc1)NCCSCc1ccco1	inactive: 15.2%
O=[N+]([O-])c1ccc(Cl)c2c1C1C=CCC1C(c1ccccn1)N2 (configuration not stated)	inconclusive: -32.9%
O=C(c1cccc([N+](=O)[O-])c1)N1CCN(Cc2ccc3c(c2)OCO3)CC1	active: -69.3%
CN(C(=O)C(C)(C)C)[C@H]1C[C@H]2c3[nH]c4ccccc4c3CCN2C(=O)[C@H]1CO	inactive: -2.44%
O=C(O)CSc1ccc(NC(=O)Nc2ccccc2F)cc1	active: -53.8%
O=C(Nc1ccc(Cl)cc1)Nc1ccc2c(c1)N1CCN=C1S2	inactive: -6.11%
NC(=O)SCC(=O)Nc1ccc(Cl)cc1	inconclusive: -31.4%
COC(CNC(=O)c1ccc2c3c(onc13)-c1ccccc1C2=O)OC	inconclusive: -30.5%
Cc1cc(-c2csc(NC(=O)c3ccc(=O)[nH]c3)n2)c(C)n1Cc1ccccc1	inconclusive: -37.6%
COc1ccc(N=CC2=C(O)c3ccccc3C2=O)c(OC)c1	inconclusive: -36.8%
Cc1ccc(NC(=O)c2sccc2C)nc1	inconclusive: -35.4%
Cc1ccc(-c2nnc(Nc3ccc(Br)cc3)c3ccccc23)cc1S(=O)(=O)N1CCCCC1	inactive: -1.01%
Cc1nn(CC(=O)NCCc2ccccc2Cl)c(=O)c2nn(-c3ccccc3)c(C)c12	inconclusive: -33.6%
